Laboratory results reported in the supplement of paper PMC12217912.
Some of the results follow. The full chains were built here from the parent and the listed change. Values near 0.05 are background.

B1: TEV protease; numbered along this chain (parent)
chain: MGESLFKGPRDYNPISSSICHLTNESDGHTTSLYGIGFGPFIITNKHLFRRNNGTLVVQSLHGVFKVKDTTTLQQHLVDGRDMIIIRMPKDFPPFPQKLKFREPQREERICLVTTNFQTKSMSSMVSDTSCTFPSGDGIFWKHWIQTKDGQCGSPLVSTRDGFIVGIHSASNFTNTNNYFTSVPKNFMELLTNQEAQQWVSGWRLNADSVLWGGHKVFMVKPEEPFQPVKEATQL

Variants of: B1
Test: raw area under fraction-flipped curve 0-4 h after induction (AUC4h, not background-subtracted), DNA-recorder readout of cleavage of the substrate (dimensionless); higher = more cleavage of the substrate by the protease variant
Details: temperature: 34 °C; time window: 0-4 h after rhamnose induction
Protocol: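 In vivo DNA recorder in E. coli TOP10(DE3) ΔrhaA at 34 °C. Each TEVp single-site mutant (parent TEVp 0) is paired with a single-site variant of the 7-mer TEVs (canonical ENLYFQ|S). The substrate sits between flexible linkers in a Bxb1-sfGFP-TEVs-SsrA fusion, so cleavage stabilises Bxb1 and speeds flipping of a recombination array, read by NGS. The value is the raw area under the fraction-flipped curve over 0-4 h after rhamnose induction (AUC4h), with ≥20 reads per time point. It is not background-subtracted; inactive controls average about 0.047.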
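Note: Bxb1 expression induced with 0.2% (w/v) L-rhamnose at OD600 near 0.5, cultures sampled hourly, flipped fraction per protease–substrate barcode pair counted by paired-end Illumina sequencing.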

| Variant | area with substrate CNLYFQS | area with substrate GNLYFQS | area with substrate HNLYFQS | area with substrate INLYFQS | area with substrate KNLYFQS | area with substrate LNLYFQS | area with substrate MNLYFQS | area with substrate NNLYFQS | area with substrate PNLYFQS | area with substrate RNLYFQS | area with substrate TNLYFQS | area with substrate VNLYFQS | area with substrate WNLYFQS | area with substrate YNLYFQS | area with substrate DNLYFQS | area with substrate SNLYFQS | area with substrate QNLYFQS | area with substrate FNLYFQS |
| --- | --- | --- | --- | --- | --- | --- | --- | --- | --- | --- | --- | --- | --- | --- | --- | --- | --- | --- |
| MGESLFKGPRDYNPISSSICHLTNESDGHTTSLYGIGFGPFIITNKHLFRRNNGTLVVQSLHGVFKVKDTTTLQQHLVDGRDMIIIRMPKDFPPFPQKLKFREPQREERICLVTTNFQTKSMSSMVSDTSCTFPSQDGIFWKHWIQTKDGQCGSPLVSTRDGFIVGIHSASNFTNTNNYFTSVPKNFMELLTNQEAQQWVSGWRLNADSVLWGGHKVFMVKPEEPFQPVKEATQL [G136Q] | 0.0623 | 0.035 | 0.0652 | 0.059 | 0.0642 | 0.0775 | 0.0723 | 0.0481 | 0.0733 | 0.076 | 0.0656 | 0.0605 | 0.0559 | 0.0729 |  |  |  |  |
| MGESLFKGPRDYNPISSSICHLTNESDGHTTSLYGIGFGPFIITNKHLFRRNNGTLVVQSLHGVFKVKDTTTLQQHLVDGRDMIIIRMPKDFPPFPQKLKFREPQREERICLVTTNFQTKSMSSMVSDTSCTFPSNDGIFWKHWIQTKDGQCGSPLVSTRDGFIVGIHSASNFTNTNNYFTSVPKNFMELLTNQEAQQWVSGWRLNADSVLWGGHKVFMVKPEEPFQPVKEATQL [G136N] | 0.0831 |  | 0.0931 |  | 0.0556 | 0.0601 |  | 0.0771 | 0.0708 |  | 0.0713 |  | 0.0485 | 0.0775 | 0.0923 | 0.0545 |  |  |
| MGESLFKGPRDYNPISSSICHLTNESDGHTTSLYGIGFGPFIITNKHLFRRNNGTLVVQSLHGVFKVKDTTTLQQHLVDGRDMIIIRMPKDFPPFPQKLKFREPQREERICLVTTNFQTKSMSSMVSDTSCTFPSHDGIFWKHWIQTKDGQCGSPLVSTRDGFIVGIHSASNFTNTNNYFTSVPKNFMELLTNQEAQQWVSGWRLNADSVLWGGHKVFMVKPEEPFQPVKEATQL [G136H] | 0.0722 | 0.0536 | 0.0638 | 0.0511 | 0.0726 |  | 0.039 | 0.0742 | 0.0501 |  | 0.0606 |  | 0.0601 | 0.0618 |  | 0.0749 | 0.062 |  |
| MGESLFKGPRDYNPISSSICHLTNESDGHTTSLYGIGFGPFIITNKHLFRRNNGTLVVQSLHGVFKVKDTTTLQQHLVDGRDMIIIRMPKDFPPFPQKLKFREPQREERICLVTTNFQTKSMSSMVSDTSCTFPSTDGIFWKHWIQTKDGQCGSPLVSTRDGFIVGIHSASNFTNTNNYFTSVPKNFMELLTNQEAQQWVSGWRLNADSVLWGGHKVFMVKPEEPFQPVKEATQL [G136T] | 0.0633 | 0.0622 | 0.0541 | 0.0635 | 0.0651 | 0.0634 | 0.0608 | 0.0586 | 0.0654 | 0.0518 | 0.0616 |  | 0.0602 | 0.0584 | 0.0658 | 0.0651 |  | 0.0568 |
| MGESLFKGPRDYNPISSSICHLTNESDGHTTSLYGIGFGPFIITNKHLFRRNNGTLVVQSLHGVFKVKDTTTLQQHLVDGRDMIIIRMPKDFPPFPQKLKFREPQREERICLVTTNFQTKSMSSMVSDTSCTFPSLDGIFWKHWIQTKDGQCGSPLVSTRDGFIVGIHSASNFTNTNNYFTSVPKNFMELLTNQEAQQWVSGWRLNADSVLWGGHKVFMVKPEEPFQPVKEATQL [G136L] | 0.0712 | 0.0773 | 0.0638 |  | 0.0744 |  | 0.0916 | 0.0529 | 0.0714 |  | 0.0489 |  | 0.0549 |  |  |  | 0.0752 | 0.0918 |
| MGESLFKGPRDYNPISSSICHLTNESDGHTTSLYGIGFGPFIITNKHLFRRNNGTLVVQSLHGVFKVKDTTTLQQHLVDGRDMIIIRMPKDFPPFPQKLKFREMQREERICLVTTNFQTKSMSSMVSDTSCTFPSGDGIFWKHWIQTKDGQCGSPLVSTRDGFIVGIHSASNFTNTNNYFTSVPKNFMELLTNQEAQQWVSGWRLNADSVLWGGHKVFMVKPEEPFQPVKEATQL [P104M] | 0.0494 |  | 0.0548 |  | 0.0686 | 0.0162 |  |  | 0.0602 |  | 0.0555 |  | 0.0486 |  | 0.0446 | 0.0289 | 0.0548 |  |
| MGESLFKGPRDYNPISSSICHLTNESDGHTTSLYGIGFGPFIITNKHLFRRNNGTLVVQSLHGVFKVKDTTTLQQHLVDGRDMIIIRMPKDFPPFPQKLKFREPQREERICLVTTNFQTPSMSSMVSDTSCTFPSGDGIFWKHWIQTKDGQCGSPLVSTRDGFIVGIHSASNFTNTNNYFTSVPKNFMELLTNQEAQQWVSGWRLNADSVLWGGHKVFMVKPEEPFQPVKEATQL [K120P] | 0.0403 | 0.0605 |  |  |  |  | 0.105 |  | 0.0673 | 0.073 |  |  | 0.0522 | 0.0399 |  | 0.0535 |  |  |
| MGESLFKGPRDYNPISSSICHLTNESDGHTTSLYGIGFGPFIITNKHLFRRNNGTLVVQSLHGVFKVKDTTTLQQHLVDGRDMIIIRMPKDFPPFPQKLKFREPQREERICLVTTNFQTWSMSSMVSDTSCTFPSGDGIFWKHWIQTKDGQCGSPLVSTRDGFIVGIHSASNFTNTNNYFTSVPKNFMELLTNQEAQQWVSGWRLNADSVLWGGHKVFMVKPEEPFQPVKEATQL [K120W] | 0.0797 |  | 0.0685 |  | 0.0682 |  |  |  | 0.0656 |  | 0.031 |  | 0.0587 | 0.0571 | 0.0643 |  |  |  |
| MGESLFKGPRDYNPISSSICHLTNESDGHTTSLYGIGFGPFIITNKHLFRRNNGTLVVQSLHGVFKVKDTTTLQQHLVDGRDMIIIRMPKDFPPFPQKLKFREPQREERICLVTTNFQTFSMSSMVSDTSCTFPSGDGIFWKHWIQTKDGQCGSPLVSTRDGFIVGIHSASNFTNTNNYFTSVPKNFMELLTNQEAQQWVSGWRLNADSVLWGGHKVFMVKPEEPFQPVKEATQL [K120F] | 0.0681 |  | 0.0624 |  | 0.0629 | 0.0642 | 0.0509 | 0.0709 | 0.0583 |  | 0.0662 | 0.0655 | 0.0563 | 0.067 |  |  |  | 0.0617 |
